# Assay results published in PubChem BioAssay AID686979 (National Center for Advancing Translational Sciences (NCATS), 2013).
# Values joined by “and” are separate entries in the source; they are usually repeats but may differ in a detail not shown here. Equal entries are not always repeated. In all, about 420,000 compounds went through this assay and about 50,000 (12%) were called active. The shares of active, inactive and inconclusive entries below differ from those in the screen. Calls follow the shape of the dose curve; as a rule, active = well fitted inhibition curve with a large enough effect; inconclusive = small, poorly fitted or top-dose-only effect; inactive = flat fitted curve, though single readings scatter. Potencies of inconclusive entries are left out as doubtful fits.
# Test: qHTS for Inhibitors of human tyrosyl-DNA phosphodiesterase 1 (TDP1): qHTS in cells in presence of CPT; also: nearly all actives have a fitted effect of over 55% in size
# Conditions: chicken DT40 Tdp1-/-;hTDP1 cells + 20 nM CPT, ATP luminescence, 48 h; series mostly up to 46.2 µM
# How it was run: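 Chicken DT40 Tdp1-/- cells complemented with human TDP1, 400 cells/well, exposed to compounds plus 20 nM camptothecin for at least 48 h at 37 C; viability read as ATP content by CellTiter-Glo luminescence.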
# Potency is read from the fitted curve at half-maximal effect; tags tell the direction and shape of the fitted curve.
row,Compound,Potency
1,CCCCCN(C(=O)CCC(=O)OCCOc1ccccc1)c1c(N)n(CCCC)c(=O)[nH]c1=O,inactive
2,CCOC(=O)C(C)Oc1ccc(=O)n(-c2ccccc2)n1 (centres undefined),inactive
3,COC(=O)[C@H]1C[C@@]2(O)CN(S(=O)(=O)c3ccc(C)cc3)C[C@@]2(OC(=O)NCC2CCCCC2)C[C@H]1C(=O)OC,inactive
4,CCc1ccc(CNC(=O)C2CCN(c3nnc(C)c4c(C)n(-c5ccc(C)cc5)nc34)CC2)cc1,active: 5.17 µM and active: 16.4 µM
5,CC(C)c1cc(C(=O)N2CCCC(CCC(=O)N3CCN(c4ccccn4)CC3)C2)no1 (centres undefined),active: 23.1 µM
6,Cc1cc(/C=C2\Cc3ccccc3C2=O)c(C)n1-c1ccccc1,"inconclusive [inhibitor, single point]"
7,COc1cc(-c2ccc(=O)[nH]n2)ccc1OC(F)F,inactive
8,O=C(CN1CCCc2ccccc21)Nc1cccc(S(=O)(=O)N2CCCC2)c1,"inconclusive [inhibitor, single point]"
9,CCCCC(=O)N(C)c1c(CC)nc2c(OCCOc3ccc(F)cc3)cccn12,active: 14.6 µM
10,C=CCNCCOCCSc1ccc(Cl)cc1,"inconclusive [inhibitor, single point]"
11,C/C(CC(=O)NCc1ccco1)=N\NC(=O)c1ccc([N+](=O)[O-])cc1Cl,inactive
12,Cc1ccc2nc(Nc3nc(CSc4nnnn4-c4ccccc4)cc(=O)[nH]3)nc(C)c2c1,inactive
13,NC(N)=N/N=C/c1ccc(OCc2ccc(Cl)cc2)cc1,active: 20.6 µM
14,COCCN1C(=O)c2ccccc2C(C(=O)NCCCN2CCCC2)C1c1c[nH]c2ccccc12 (centres undefined),"inconclusive [inhibitor, single point]"
15,Cc1cccc(N2CCN(C(=O)C3CCC(CNS(=O)(=O)c4cccs4)CC3)CC2)c1C (centres undefined),"inconclusive [inhibitor, single point]"
16,CC(C)(C)N1CC(c2nc3ccccc3n2Cc2ccccc2)CC1=O (centres undefined),inactive
17,Cc1cccc(C)c1Nc1nnc(SCC(=O)Nc2cc(S(=O)(=O)N3CCCCC3)ccc2Cl)s1,"inconclusive [inhibitor, single point]"
18,CCN(CC)S(=O)(=O)c1cc(-c2nnc(-c3ccc(Br)cc3)o2)ccc1Cl,active: 11.6 µM
19,Cn1cccc1/C=N/n1c(-c2ccc(C(C)(C)C)cc2)n[nH]c1=S,active: 8.2 µM
20,Cc1ccc(C(C(=O)NC(C)(C)C)N(C(=O)CCC(=O)Nc2ccccn2)c2ccccc2F)cc1 (centres undefined),"inconclusive [inhibitor, single point]"
21,Cc1nnsc1S(=O)c1ccc(Br)cc1 (centres undefined),active: 18.4 µM
22,CSc1ccccc1OCc1cc(C(=O)N(C)C2CCCc3ccccc32)no1 (centres undefined),"inconclusive [inhibitor, single point]"

row,Compound,Potency
1,CC(=O)c1c(C)[nH]c(C(=O)OC(C)C(=O)Nc2cc(S(=O)(=O)N3CCCCC3)ccc2Cl)c1C (centres undefined),"inconclusive [inhibitor, single point]"
2,COc1cccc(-c2nc(NC3CCNCC3)c3ccccc3n2)c1,"inconclusive [inhibitor, single point]"
3,CCOc1ccc(N(Cc2ccc(OC)c(OC)c2)C(=O)c2ccco2)cc1,"inconclusive [inhibitor, single point]"
4,CCOCCCn1c(=NC(C)=O)c(C#N)cc2c(=O)n3ccccc3nc21,inactive
5,Cc1ccc(NC=C(S(=O)(=O)c2ccccc2)S(=O)(=O)c2ccccc2)c(C)c1,"inconclusive [inhibitor, single point]"
6,COc1ccccc1N1CCN(C(=O)c2ccc(CS(=O)(=O)c3ccccc3OC)o2)CC1,"inconclusive [inhibitor, partial curve]"
7,CCOc1ccc(NC(=O)CN2CCN(CC(=O)Nc3ccccc3OC)CC2)cc1,"inconclusive [inhibitor, single point]"
8,O=C(Nc1nnc(S(=O)(=O)N2CCCCCC2)s1)c1ccccc1F,"inconclusive [inhibitor, partial curve]"
9,COc1ccc(OC)c(C2=NOC(C(=O)Nc3ccccc3SC)C2)c1 (centres undefined),"inconclusive [inhibitor, single point]"
10,Cc1cccc(C(=O)NC(=S)N2CCN(C)CC2)c1,"inconclusive [inhibitor, single point]"
11,CCC(C(=O)OC)n1cnc2c(cnn2-c2ccc(Cl)cc2)c1=O (centres undefined),"inconclusive [inhibitor, single point]"
12,Cc1ccc(C2=NCCn3c2c2ccc([N+](=O)[O-])cc2[n+]3[O-])cc1,active: 4.11 µM
13,Cc1ccc(F)cc1NC(=O)COC(=O)C1CC2CCCC(C1)C2=O (centres undefined),inactive
14,CNC(=O)C1CC(=O)N(Cc2ccc3c(c2)OCO3)C(=Nc2ccc(OC)cc2)S1 (centres undefined),inactive
15,O=C(c1ccccc1)N1N=C(c2ccccc2)CC1c1ccccc1O (centres undefined),active: 23.1 µM
16,COc1cccc(C(=O)NC(=S)Nc2ccc([N+](=O)[O-])cc2C)c1,"inconclusive [inhibitor, single point]"
17,CN(C)C(CNC(C(=O)Nc1ccc([N+](=O)[O-])cc1Br)c1ccccc1)c1ccccc1 (centres undefined),"inconclusive [inhibitor, single point]"
18,O=C(COc1ccc(F)cc1)N1c2ccccc2CCc2ccccc21,"inconclusive [inhibitor, single point]"
19,CCCCCCSc1ccc([C@@H]2[C@@H]3C(=O)N(C)C(=O)[C@@H]3[C@]3(C(=O)OC)CCCCN23)cc1,active: 9.2 µM
20,CCOc1cccc2sc(N3CCN(C(=O)C(C)(C)C)CC3)nc12,"inconclusive [inhibitor, single point]"
21,N#CC1(NC(=O)CSc2nc3ccccc3s2)CCCCC1,"inconclusive [inhibitor, single point]"
22,Cc1ccc(S(=O)(=O)N2CCOCC2)cc1NC(=O)CSc1ccc(Cl)cc1,"inconclusive [inhibitor, single point]"
